# Data from the supplement of paper PMC3334620.
# Over roughly 33,000 sequences, “E-score (-0.5 to 0.5)” has its median near -0.032; the highest 2% begin near 0.36. The list shows a part of the results.
# Target: T1, Sko1 (UniProt Q02100)
# T1 sequence: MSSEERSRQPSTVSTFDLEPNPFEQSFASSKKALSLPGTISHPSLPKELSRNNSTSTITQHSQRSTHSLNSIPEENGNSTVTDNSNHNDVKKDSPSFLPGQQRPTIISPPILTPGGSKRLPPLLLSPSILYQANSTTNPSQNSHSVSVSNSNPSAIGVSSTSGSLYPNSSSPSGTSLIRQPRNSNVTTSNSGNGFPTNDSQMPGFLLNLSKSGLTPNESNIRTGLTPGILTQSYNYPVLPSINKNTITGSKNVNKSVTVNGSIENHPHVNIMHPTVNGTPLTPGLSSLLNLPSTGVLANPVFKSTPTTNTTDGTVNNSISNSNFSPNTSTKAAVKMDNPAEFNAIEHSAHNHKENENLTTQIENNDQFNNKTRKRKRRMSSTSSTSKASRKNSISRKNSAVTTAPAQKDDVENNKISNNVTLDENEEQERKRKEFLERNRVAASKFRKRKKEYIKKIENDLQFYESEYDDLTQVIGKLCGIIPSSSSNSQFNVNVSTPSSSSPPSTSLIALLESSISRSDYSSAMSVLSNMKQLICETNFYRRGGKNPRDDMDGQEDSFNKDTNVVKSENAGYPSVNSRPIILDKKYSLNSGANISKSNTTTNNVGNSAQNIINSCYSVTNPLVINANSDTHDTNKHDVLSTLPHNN
# Experiment: PBM E-score (8-mer binding enrichment) (E-score (-0.5 to 0.5)); higher = stronger / more preferred TF binding; most listed sequences are background and not binding sites
# Conditions: protein concentration: 200 nM; construct: GST-full length
# Procedure, shortened: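 Bound GST-tagged yeast transcription factors, applied at about 100-200 nM to double-stranded universal all-10-mer Agilent arrays, were detected with fluorescent anti-GST. Scans were normalised with masliner. A modified Wilcoxon-Mann-Whitney statistic, the E-score, was assigned to each ungapped eight-base word pooled with its reverse complement by the Universal PBM Analysis Suite.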
row,Sequence,PBM E-score
1,CGGGCTAC,-0.127
2,CTAACTGA,-0.0156
3,GCGACGCA,0.128
4,TGTACTAA,0.0373
5,ACCATGGA,-0.112
6,GCGTGGAC,0.0575
7,CGTGTCTA,0.205
8,ACGCGAAC,0.0905
9,GAAATACA,0.268
10,GTGGTCAA,-0.113
11,CGAGATAC,0.229
12,CTCTGGGA,-0.322
13,AGTCCACC,-0.263
14,AGTGGGCA,-0.0178
15,AAGAAGAG,-0.078
16,TTCTAGAA,-0.0322
17,ACAACTGG,-0.203
18,ACGGGTCC,-0.369
19,ATTACCAG,-0.0418
20,ACATCTCA,0.0821
21,ATAAGACG,0.115
22,ACCGCGCG,0.00662
23,TATCCTGA,0.0017
24,CGTGACTC,0.172
25,GATATCCA,0.0425

row,Sequence,PBM E-score
1,ATCAAAAA,0.186
2,CGTCACAC,0.437
3,CCCTCCAC,-0.136
4,CAGCAGGG,-0.269
5,AACATTAG,-0.0252
6,TACAAAAA,0.223
7,CAGACGGC,-0.301
8,GCACAGGC,-0.115
9,AGCAGGCG,-0.0967
10,CGGGCCGC,-0.242
11,GACGTTGA,0.269
12,CATTTACC,0.129
13,CGTTTCAG,0.104
14,AGCATGAG,-0.136
15,ACGTACCC,0.435
16,CACAGTCA,-0.095
17,AATATGTG,0.227
18,CGTCAAAG,0.331
19,CCTTATAA,0.0933
20,GTGTGGGA,-0.0912
21,CATTCATC,0.0487
22,CGAAAACG,0.188
23,TCAGCGGA,-0.234
24,CGGATGGA,-0.201
25,GCCTTATA,-0.0532

row,Sequence,PBM E-score
1,AATGATCT,0.201
2,AGCATACC,-0.00962
3,CCAAAAGC,-0.102
4,CAGGCATC,-0.138
5,AGGATTAT,-0.125
6,ATCGAACC,-0.0105
7,ACAACTCG,-0.0242
8,ACAGTACC,-0.194
9,GAAGTTCA,0.0026
10,AACCGCGC,-0.0849
11,AGGGCCGC,-0.217
12,ACTTTCGC,0.0343
13,AACCAGGT,-0.222
14,AGGTGGAG,-0.145
15,CGATGCGA,-0.15
16,CTAGCTAG,0.0391
17,GAAACAAA,0.132
18,AGACGACC,-0.195
19,GCTAGTCC,-0.2
20,AGCGACCT,-0.273
21,AATTCTCA,0.0751
22,AAAGAAAG,0.0193
23,AATAGCAT,0.158
24,AGCTCTGA,-0.0847
25,CCGGTTGA,-0.262

row,Sequence,PBM E-score
1,ATCGTGGC,-0.0464
2,GGGGATTA,-0.00914
3,TGCAAAAA,-0.0159
4,ATTTCTCG,0.208
5,AGGAGCGC,-0.179
6,GGCTGATA,-0.161
7,GTACGGAC,-0.0428
8,GGCTGCCC,-0.411
9,GAATTACC,0.117
10,ACGAGCGG,-0.0751
11,GCGCCAGC,-0.239
12,ATCCCGGA,-0.279
13,CAACCAGC,-0.125
14,AAATGGAT,-0.0156
15,ACAGGGGG,-0.385
16,CGAGTATC,-0.167
17,CCCTTTAC,0.0038
18,AAAAAGTA,0.231
19,ACTAGAGT,0.0936
20,AACAGTAA,-0.0208
21,AATCTGCG,0.00155
22,ACAGCTCT,-0.267
23,CTCTAGAG,-0.261
24,ACTGTTAA,0.101
25,AATGGATA,-0.021

row,Sequence,PBM E-score
1,ACGCCCGC,-0.0294
2,AACTTTCG,0.0319
3,GATGACAC,0.257
4,CAACGATG,0.0182
5,CATCGTCA,0.395
6,GTGGGCCA,0.0229
7,GTTCAGCA,0.0043
8,CCCTCTGA,-0.128
9,GTCTGTCA,-0.0302
10,AGGAAAAG,0.0334
11,ATCGAGGC,-0.122
12,ACCTGGTG,-0.272
13,AAAGGAGT,-0.161
14,CGTCAGGA,0.39
15,GACTGAAC,-0.31
16,GATGTACA,0.0843
17,AATCGCGG,-0.215
18,GGTCCAAC,-0.217
19,CACCTGCC,-0.0379
20,ACAGAATC,-0.0883
21,AGATGTAT,0.133
22,TATATTAA,0.278
23,ACTGCGAC,0.0239
24,ACCGCTAG,-0.199
25,AAACGAGG,-0.0296

row,Sequence,PBM E-score
1,TAACTCGA,0.19
2,CAGTAGCG,-0.0769
3,AACTTGTC,0.0252
4,CTAGGTAA,0.0696
5,ACACGTGA,0.415
6,ACGCATTG,0.267
7,AACGCGAT,0.0804
8,ATTAGAAT,0.183
9,CGCCAGAG,-0.296
10,CTGCAAAA,0.0796
11,ATTACAGC,-0.116
12,CAGAACCA,-0.153
13,CCGAGATC,-0.237
14,AAAAGATG,0.139
15,GATCGTAA,0.281
16,CCCAACTC,-0.0116
17,CAAGGTTC,-0.198
18,AAAACCTT,-0.17
19,GACAAGAA,0.121
20,CATGGGCC,-0.186
21,GACGTCGC,0.334
22,TACCAGTA,-0.0641
23,ATATCGGC,0.0222
24,CTATCCTC,-0.246
25,GGAAGTAC,-0.253

row,Sequence,PBM E-score
1,GTGCTGAA,-0.0793
2,ACCGACGA,0.0822
3,GTCCCGAC,-0.189
4,CATTAGGA,0.0571
5,TATTAAAA,0.233
6,GAAGACTC,-0.212
7,GGGTGGAA,-0.0996
8,GGTCGTAC,-0.239
9,ACCGCGGT,-0.281
10,AGGTAGAT,-0.0309
11,CCCTTCCG,-0.293
12,ATATATCC,0.202
13,GAGCGGCA,-0.194
14,CAAGCCCC,-0.297
15,AACCCAAA,0.0863
16,ACTAGCTG,-0.0107
17,CAGTGACA,0.0692
18,ATATAAAT,0.303
19,AGTTAGCG,0.113
20,CCCGCGAC,-0.23
21,CACTTAGA,0.188
22,GTAACAGA,0.173
